# Source: PubChem BioAssay AID686970 (National Center for Advancing Translational Sciences (NCATS), 2013)
# Among all 360,000 compounds or so, about 6,000 (1.7%) were called active. This list was built around the results that the source calls inconclusive (neither active nor inactive); the mix of calls is not that of the screen. Calls come from the whole dose curve; as a rule, active = well fitted cell-killing curve with a large enough effect; inconclusive = small, poorly fitted or top-dose-only effect, or effect the other way; inactive = flat fitted curve, though single readings scatter. Potencies of inconclusive entries are left out as doubtful fits.
# Assay: qHTS for induction of synthetic lethality in tumor cells producing 2HG: qHTS for the HT-1080-NT fibrosarcoma cell line;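 note: NT is the 2HG producing partner of a matched IDH1 knockdown line; nearly all actives have a fitted effect of over 55% in size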;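 for activity, negative = less viability: 0% = DMSO-treated cells and -100% = media-only wells without cells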
# Conditions: HT-1080-NT fibrosarcoma viability, CellTiter-Glo ATP luminescence, 48 h; activity, negative = less viability: at 46.1 µM (top of the series) unless noted
# Summary of the method: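 750 cells/well, RPMI + 5% FBS; 2 h settle, compound pin-transfer, 48 h at 37 degrees C. CellTiter-Glo 10 min RT, luminescence. Normalized to DMSO and media-only wells.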
# Potency is the fitted concentration of half-maximal effect; tags give direction and shape of the fitted curve.
Structure (SMILES),Potency,"activity, negative = less viability"
CN(Cc1cnc2nc(N)nc(N)c2n1)c1ccc(C(=O)NC(CCC(=O)O)C(=O)O)cc1 (stereo not given),active: 0.231 µM,–
O=C(CCN1CCC(c2ccccc2)C1)c1cccs1 (stereo not given),"inconclusive [cytotoxic, single point]",–
Cc1ccc(S(=O)(=O)N(C)CC(=O)N2CCN(Cc3ccccc3)CC2)cc1,inactive,–
O=C(NC(c1ccc(-c2ccccc2)cc1)c1cnccn1)C1CCN(CCOc2ccc(F)cc2)CC1 (stereo not given),"inconclusive [cytotoxic, single point]",–
O=C(COC(=O)[C@@H]1CC(O)CN1S(=O)(=O)c1ccc(Cl)c(Cl)c1)NC(=O)NCc1ccccc1 (stereo not given in full),inactive,–
O=C(NCc1ccco1)C1CC(c2cc(C(F)(F)F)cc(C(F)(F)F)c2)=NO1 (stereo not given),active: 5.8 µM,–
CC(C)CCN(C(=O)c1csnn1)C(C(=O)NC1CCCC1)c1ccc(F)cc1 (stereo not given),inactive,–
Cc1cc(NC(=O)CSc2nnc(-c3ccoc3C)o2)no1,active: 11.2 µM,–
CCC(=O)NC(c1ccc([N+](=O)[O-])cc1)c1c(O)ccc2ccccc12 (stereo not given),"inconclusive [cytotoxic, single point]",–
CC(OC(=O)c1cc2sccc2n1C)C(=O)NCc1ccco1 (stereo not given),inactive,–
CC(=O)c1ccc(N2CCN(C(=O)c3cccs3)CC2)c(F)c1,inactive,–
CC(C)OCCc1cccc[n+]1[O-],"inconclusive [rising, single point]",–
CC1=CC(C)(C)Nc2ccc(OC(=O)CN3C(=O)c4ccccc4C3=O)cc21,"inconclusive [cytotoxic, single point]",–
Cc1nc(SCc2ccc(C(=O)O)cc2)c2c(C)c(C)sc2n1,–,inconclusive: -7.47% [cytotoxic]
COc1ccc(CNC(=O)C2Cc3c(-c4ccc5c(c4)OCO5)ccnc3O2)cc1OC (stereo not given),"inconclusive [cytotoxic, single point]",–
CC(C)(C)c1ccc(CN2N=C(/C=C/c3ccccc3)CCC2=O)cc1,"inconclusive [cytotoxic, single point]",–
Cc1c(C(=O)NCc2ccc3c(c2)OCO3)oc2ccc(S(=O)(=O)N3CCCC3)cc12,"inconclusive [cytotoxic, single point]",–
O=C1OCC2=C1C(c1ccc3c(c1)OCO3)c1cc3c(cc1O2)OCO3 (stereo not given),active: 3.26 µM,–
CCN(CC)NC(=S)Nc1ccccc1,"inconclusive [cytotoxic, single point]",–
CC(=O)c1ccc(-c2ccc(C(=O)NCC(c3ccc(F)cc3)N3CCOCC3)o2)cc1 (stereo not given),inactive,–
CCN(CC)c1ccc(/C=N/NC(=O)CC(C)C)cc1,inactive,–
CC(=O)Nc1ccc(S(=O)(=O)NCCC(=O)OC(C)C(=O)c2ccc(C)cc2)cc1 (stereo not given),inactive,–
COC(=O)c1c(NC(=O)/C=C/C(=O)O)sc(C)c1-c1ccc(C)c(C)c1,"inconclusive [cytotoxic, single point]",–

Structure (SMILES),Potency,"activity, negative = less viability"
C/C(=N\OC(=O)c1c(-c2ccccc2Cl)noc1C)c1ccncc1,inactive,–
Cc1cccc(C)c1NC(=O)CN(C)C(=O)c1cccc(S(=O)(=O)N2CCN(c3ccc(F)cc3)CC2)c1,"inconclusive [cytotoxic, partial curve]",–
CCOc1ccc(C(=O)CC(=O)C(=O)NCCc2ccc(OC)c(OC)c2)cc1,inactive,–
c1ccc(Nc2nc(N3CCCCC3)nc(N3CCCCC3)n2)cc1,"inconclusive [cytotoxic, single point]",–
S=C(NCc1ccco1)N1CCN(c2nc(-c3ccc(Cl)cc3)cs2)CC1,"inconclusive [cytotoxic, single point]",–
COc1ccc(Nc2ccc(S(=O)(=O)N3CCCCC3)cc2[N+](=O)[O-])cc1,–,inconclusive: -32.1% [cytotoxic]
FC(F)(F)c1ccc(-c2cccc3c2C2CC3CCN2Cc2ccc3c(c2)OCO3)cc1 (stereo not given),"inconclusive [rising, single point]",–
COc1ccc(CCn2c(=N)c(C(=O)NCCN3CCOCC3)cc3c(=O)n4ccccc4nc32)cc1OC,"inconclusive [cytotoxic, partial curve, poor fit]",–
CC(=Nc1ccccc1)C1=C(O)C(Cc2ccc(O)cc2)NC1=O (stereo not given),active: 0.58 µM,–
CC(=O)Oc1cccc(N2C(=O)c3ccc(C(=O)O)cc3C2=O)c1,inactive,–
Cc1cc(C)c(C(=O)CSC2=NC(N)=C(C#N)C3(CCCCC3)C2C(N)=O)cc1C (stereo not given),"inconclusive [cytotoxic, single point]",–
CCN(CC)S(=O)(=O)c1ccc(OC)c(NS(=O)(=O)c2cccc(C(=O)O)c2)c1,"inconclusive [rising, partial curve, poor fit]",–
CCOc1ccc2c(c1)C(C)=CC(C)(C)N2S(=O)(=O)c1ccc(NC(C)=O)cc1,active: 3.66 µM,–
N#CC1=C(N)C2=CCCC[C@H]2[C@H](c2ccccc2)C1(C#N)C#N,"inconclusive [cytotoxic, single point]",–
Cc1csc2ncnc(N3CCN(C(=O)Nc4ccc(OC(F)(F)F)cc4)CC3)c12,"inconclusive [cytotoxic, single point]",–
COC(=O)C1=CN(c2ccc(OC)cc2)C(N)=C(C#N)C1c1ccc(OC)cc1 (stereo not given),inactive,–
O=C(O)c1ccc2c(=O)n3c(nc2c1)/C(=C/c1ccccc1C(F)(F)F)CCCC3,"inconclusive [rising, partial curve]",–
OCCNCc1cccc(OCc2ccccc2Cl)c1,"inconclusive [cytotoxic, partial curve]",–
CN1N=C(C(C)(C)C)CC1=O,"inconclusive [cytotoxic, single point]",–
COc1cccc(C(=O)Nc2ccc3c(c2)CCCN3C(=O)c2cccs2)c1OC,"inconclusive [cytotoxic, partial curve]",–
O=C(Nc1nc(-c2ccccc2)cs1)c1ccc(=O)[nH]c1,"inconclusive [cytotoxic, single point]",–
CC(=O)Nc1ccc(S(=O)(=O)N2CCN(Cc3ccccc3[N+](=O)[O-])CC2)cc1,"inconclusive [cytotoxic, single point]",–
